Assay results as given in patent US20240124575A1 (SIMCERE ZAIMING PHARMACEUTICAL, published 2024).

T1: murine CD33-His protein (murine, UniProt Q63994 18-240, limits assumed)
T1 construct: also called murine CD33 protein
T1 sequence (looked up): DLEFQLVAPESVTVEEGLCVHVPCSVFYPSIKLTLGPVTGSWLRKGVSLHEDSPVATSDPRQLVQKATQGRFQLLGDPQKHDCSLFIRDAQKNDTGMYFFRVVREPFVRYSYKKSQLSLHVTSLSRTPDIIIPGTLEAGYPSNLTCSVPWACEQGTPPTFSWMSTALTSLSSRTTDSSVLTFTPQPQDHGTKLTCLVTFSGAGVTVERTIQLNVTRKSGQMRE


Key:
[1] = molecular target: T1, murine CD33-His protein; assay: ELISA on coated murine CD33-his
[2] = molecular target: T2, human CD33-C2-his (human, UniProt P20138 136-260); assay: ELISA on coated human CD33-C2-his
T2 construct: expressed in HEK293E; also called hCD33-C2-his; human CD33 protein C2-domain; not shown: His tag

[3] = molecular target: T3, human CD33-V-his (human, UniProt P20138 18-144); assay: ELISA on coated human CD33-V-his
T3 construct: expressed in HEK293E; also called hCD33-V-his; human CD33 protein V-domain; not shown: His tag

[4] = molecular target: T4, human CD33 on U937 cells (endogenous) (human, UniProt P20138); assay: FACS, U937 cells
T4 construct: whole, on cells

[5] = molecular target: T5, human CD33-His (extracellular domain Asp 18-His 259) (human, UniProt P20138 18-259); assay: ELISA, antigen coated
T5 construct: range 18-259; bought protein; also called hCD33-his; human CD33 protein; not shown: His tag

[6] = molecular target: T6, human CD33 on CHO-K1 cells (CHO-K1-human CD33) (human, UniProt P20138); assay: FACS, CHO-K1-human CD33 cells
T6 construct: whole, on cells; stably transfected CHO-K1 clones; also called CHO-K1-hCD33-B8; CHO-K1-human CD33 B8

[7] = molecular target: T1, murine CD33-His protein; assay: ELISA, antigen coated
[8] = molecular target: T7, monkey CD33-his protein (monkey); assay: SPR (Biacore), antibody captured on Protein A chip, monkey CD33 analyte
T7 construct: bought protein; also called monkey CD33 protein (Sino Biological, Cat. No. 50712-M08H)

[9] = molecular target: T8, human CD33-his protein (human, UniProt P20138 18-259); assay: SPR (Biacore), antibody captured on Protein A chip, human CD33-his analyte
T8 construct: range 18-259; bought protein; also called hCD33-his; recombinant human CD33-his; not shown: His tag

Sequence of human CD33-C2-his (P20138 other isoform, or with tags, fused parts or gaps limits assumed): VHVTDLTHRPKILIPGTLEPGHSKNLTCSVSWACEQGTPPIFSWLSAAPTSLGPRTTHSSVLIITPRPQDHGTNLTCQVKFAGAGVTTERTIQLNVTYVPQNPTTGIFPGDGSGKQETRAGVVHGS
Sequence of human CD33-V-his (P20138 other isoform, or with tags, fused parts or gaps limits assumed): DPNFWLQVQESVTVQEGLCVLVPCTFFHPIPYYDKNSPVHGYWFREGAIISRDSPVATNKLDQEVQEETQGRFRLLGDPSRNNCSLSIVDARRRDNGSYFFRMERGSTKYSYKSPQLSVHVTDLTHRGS

Row | Binder | binding result [1] | binding result [2] | EC50 [4] | Max MFI [4] | OD450 at 0.0001 nM [5] | OD450 at 0.001 nM [5] | OD450 at 0.01 nM [5] | OD450 at 0.1 nM [5] | OD450 at 1 nM [5] | OD450 at 10 nM [5] | OD450 at 100 nM [5] | EC50 [6] | Max MFI [6] | OD450 at 0.0001 nM [7] | OD450 at 0.001 nM [7] | OD450 at 0.01 nM [7] | OD450 at 0.1 nM [7] | OD450 at 1 nM [7] | OD450 at 10 nM [7] | OD450 at 100 nM [7] | also measured
1 | S006-NB147-225-H5 (Fc fusion, also called humanized VHH-Fc) EVQVVESGGGLVQPGGSLRLSCAASGFTFSNYAMSWVRQAPGKGLEWVAEINSGGDNTYYAYFVKGRFTISRDNAKNSLYLQMNSLKPEDTATYYCAREEENAGTILQGQGTQVTVSS[letters of human IgG1 Fc with changes left out] | no binding (tested: 100 nM) | – | – | – | – | – | – | – | – | – | – | – | – | – | – | – | – | – | – | – | EC50 (read off the curve) [2]: ~0.06 nM
2 | S006-NB146-173-H2 (Fc fusion, also called humanized VHH-Fc) EVQLVESGGGLVQPGGSLRLSCAASGFTFSLHSMGWYRQAPGKQRELVAGISRDGDSNYLSSLAGRFTISRDNAKNSLYLQMNSLRAEDTAVYYCNARTSPWSAALWGQGTMVTVSS[letters of human IgG1 Fc with changes left out] | no binding (tested: 100 nM) | binds | – | – | – | – | – | – | – | – | – | – | – | – | – | – | – | – | – | – | –
3 | S006-NB146-17-H1 (Fc fusion, also called humanized VHH-Fc) EVQLVESGGGLVQPGGSLRLSCAASGSIFTSDDMDYAMGWYRQAPGKQREWVATITSDEDTYYVDSVKGRFTISRDNAKNSLYLQMNSLRAEDTAVYYCFANVRSDRSSLYRNYWGQGTMVTVSS[letters of human IgG1 Fc with changes left out] | no binding (tested: 100 nM) | no binding (tested: 100 nM) | – | – | – | – | – | – | – | – | – | – | – | – | – | – | – | – | – | – | binding result [3]: no binding (tested: 100 nM)
4 | S006-NB146-3 (Fc fusion, also called VHH-Fc) EVQVVESGGGLVQSGGSLRLSCAASGAIFTSNAMDYAMGWYRQVSGKQREWVATITSDDDTNYGDSAKGRFTISRDSAKNTAYLQMNSLKPEDTAVYYCFANVRSDRSTLYRNYWGQGTQVTVSS[letters of human IgG1 Fc with changes left out] | – | – | 4.09 nM | 1140 MFI | 0.06 OD450 | 0.06 OD450 | 0.07 OD450 | 0.26 OD450 | 1.58 OD450 | 2.81 OD450 | 2.95 OD450 | 1.04 nM | 6420 MFI | 0.06 OD450 | 0.06 OD450 | 0.06 OD450 | 0.06 OD450 | 0.06 OD450 | 0.07 OD450 | 0.07 OD450 | –
5 | S006-NB146-40 (Fc fusion, also called VHH-Fc) QVQLVESGGGLVQSGGSLRLSCAASGSIFTSNDMDYAMGWYRQVSGKQREWVATITSDEDTNYGDSVKGRFTISRDSAKNTAYLQMNSLKPEDTAVYYCFANLRSDRSTLYRNYWGQGTQVTVSS[letters of human IgG1 Fc with changes left out] | – | – | 3.82 nM | 1100 MFI | 0.05 OD450 | 0.05 OD450 | 0.07 OD450 | 0.27 OD450 | 2.46 OD450 | 2.8 OD450 | 2.9 OD450 | 1.09 nM | 6430 MFI | 0.06 OD450 | 0.06 OD450 | 0.06 OD450 | 0.06 OD450 | 0.06 OD450 | 0.06 OD450 | 0.06 OD450 | –
6 | S006-NB146-39 (Fc fusion, also called VHH-Fc) EVQLVESGGGLVQPGESLRLSCTAPGIILDYYPIGWFRQAPGKEREGVAFITNSDDSTIYTNYADSVKGRFTISREKNTVYLQMNSLKPEDTALYYCAARSTYIVGRNENALNSSDYDYWGQGTQVTVSS[letters of human IgG1 Fc with changes left out] | – | – | 11.3 nM | 650 MFI | 0.05 OD450 | 0.06 OD450 | 0.06 OD450 | 0.14 OD450 | 1.81 OD450 | 2.81 OD450 | 2.97 OD450 | 44.4 nM | 16300 MFI | 0.06 OD450 | 0.06 OD450 | 0.06 OD450 | 0.06 OD450 | 0.06 OD450 | 0.06 OD450 | 0.06 OD450 | –
7 | S006-NB146-46 (Fc fusion, also called VHH-Fc) QLQLVESGGGLVQPGGSLRLSCTAPGIVLDYYPIGWFRQAPGKEREGVSFITNSDDSTIYTNYADSVKGRFTISREKNTVYLQMNSLKPEDTAVYYCAARSTYIVGRNENALNASDYDYWGQGTQVTVSS[letters of human IgG1 Fc with changes left out] | – | – | 14.7 nM | 589 MFI | 0.06 OD450 | 0.06 OD450 | 0.07 OD450 | 0.19 OD450 | 1.92 OD450 | 2.91 OD450 | 2.85 OD450 | 38 nM | 16500 MFI | 0.06 OD450 | 0.06 OD450 | 0.06 OD450 | 0.06 OD450 | 0.06 OD450 | 0.06 OD450 | 0.06 OD450 | –
8 | S006-NB146-60-H3 (Fc fusion, also called humanized VHH-Fc) EVQLVESGGGLVQPGGSLRLSCAASRSTSSLSLMSWHRQAPGKQRELVASITSGGKANYVDSVKGRFTISRDNAKNSLYLQMNSLRAEDTAVYYCHAYDRAGTASGFGAAWGQGTMVTVSS[letters of human IgG1 Fc with changes left out] | no binding (tested: 100 nM) | no binding (tested: 100 nM) | – | – | – | – | – | – | – | – | – | – | – | – | – | – | – | – | – | – | –
9 | S006-NB146-60-H4 (Fc fusion, also called humanized VHH-Fc) EVQLVESGGGLVQPGGSLRLSCAASRSTSSLSLMSWHRQAPGKQRELVASITSGGKANYVDSVKGRFTMSRDNAKNSVYLQMNSLRAEDTAVYYCHAYDRAGTASGFGAAWGQGTMVTVSS[letters of human IgG1 Fc with changes left out] | no binding (tested: 100 nM) | no binding (tested: 100 nM) | – | – | – | – | – | – | – | – | – | – | – | – | – | – | – | – | – | – | –
10 | S006-NB146-60-H5 (Fc fusion, also called humanized VHH-Fc) EVQLVESGGGLVQPGGSLRLSCAASRSTSSLSLMSWHRQAPGKQRELVASITSGGKANYVDSVKGRFTISRDDAKNSLYLQMNSLRAEDTAVYYCHAYDRAGTASGFGAAWGQGTMVTVSS[letters of human IgG1 Fc with changes left out] | no binding (tested: 100 nM) | no binding (tested: 100 nM) | – | – | – | – | – | – | – | – | – | – | – | – | – | – | – | – | – | – | –
11 | S006-NB146-60-H6 (Fc fusion, also called humanized VHH-Fc) EVQLVESGGGLVQPGGSLRLSCAASRSTSSLSLMSWHRQAPGKQRELVASITSGGKANYVDSVKGRFTISRNDAKNSLYLQMNSLRAEDTAVYYCHAYDRAGTASGFGAAWGQGTMVTVSS[letters of human IgG1 Fc with changes left out] | no binding (tested: 100 nM) | no binding (tested: 100 nM) | – | – | – | – | – | – | – | – | – | – | – | – | – | – | – | – | – | – | –
12 | S006-NB146-173-H5 (Fc fusion) EVQLVESGGGLVQPGGSLRLSCAASGSTLSLHSMGWYRQAPGKQRELVAGISRDGDSNYLSSLAGRFTISRDGTKNSLYLQMNSLRAEDTAVYYCNARTSPWSAALWGQGTMVTVSS[letters of human IgG1 Fc with changes left out] | – | – | – | – | – | – | – | – | – | – | – | – | – | – | – | – | – | – | – | – | Kd [8]: 95.1 nM; koff [8]: 0.0144 s⁻¹; kon [8]: 152000 M⁻¹ s⁻¹; Kd [9]: 61.2 nM; koff [9]: 0.00611 s⁻¹; kon [9]: 99900 M⁻¹ s⁻¹
13 | S006-NB146-39-aH8 (Fc fusion) EVQLVESGGGLVQPGGSLRLSCAASGIILDYYPIGWFRQAPGKEREGVAFITNSDDSTIYTNYADSVKGRFTISRDKNSLYLQMNSLRAEDTAVYYCAARSTYIVGRNENALNSADYDYWGQGTMVTVSS[letters of human IgG1 Fc with changes left out] | – | – | – | – | – | – | – | – | – | – | – | – | – | – | – | – | – | – | – | – | Kd [8]: 47.8 nM; koff [8]: 0.0177 s⁻¹; kon [8]: 371000 M⁻¹ s⁻¹; Kd [9]: 4.42 nM; koff [9]: 0.0009 s⁻¹; kon [9]: 204000 M⁻¹ s⁻¹
14 | S006-NB146-20 (Fc fusion, also called VHH-Fc; S5006-NB146-20) EVQLVESGGGSVQAGGSLRLSCGTPQSWFRLSSYVMNWYRQAPGKRRELVAEITQDDTTNYTPSVKGRFAISRDNANNTVHLQMNSLKPEDTAVYYCNTIQIWGQGTQVTVSS[letters of human IgG1 Fc with changes left out] | – | – | 5.32 nM | 668 MFI | 0.06 OD450 | 0.07 OD450 | 0.09 OD450 | 0.47 OD450 | 1.55 OD450 | 2.82 OD450 | 2.75 OD450 | 9.75 nM | 20500 MFI | 0.06 OD450 | 0.06 OD450 | 0.06 OD450 | 0.06 OD450 | 0.06 OD450 | 0.06 OD450 | 0.06 OD450 | –
